# Measured values as given in PubChem BioAssay AID493208 (National Center for Advancing Translational Sciences (NCATS), 2011).
# Out of some 44,000 compounds screened, about 340 (0.77%) were called active. About 5% were inconclusive and are not listed. Calls follow the shape of the dose curve; as a rule, active = well fitted inhibition curve with a large enough effect; inconclusive = small, poorly fitted or top-dose-only effect; inactive = flat fitted curve, though single readings scatter. Some of the results follow.
# Assay: Acumen qHTS Assay for Inhibitors of the mTORC1 Signaling Pathway in MEF (Tsc2-/-, p53-/-) Cells: Sytravon;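 also: plate controls were DMSO for no effect and rapamycin for full effect; nearly all actives have a fitted effect of over 50% in size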
# Conditions: phospho-rpS6 immunofluorescence/PI, 24 h; series mostly up to 38.3 µM; activity change, negative = inhibition: at the top concentration
# In short: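 Cell-based qHTS: Tsc2-/- p53-/- MEF, 24 h cpd, 37 °C; fix/perm, anti-phospho-S6 Alexa-488 + PI; Acumen 488 nm scan; pS6/PI ratio, % positive cells; rapamycin 7.5 nM = inhibition ref; PI count = viability.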
row,Compound,"activity change, negative = inhibition"
1,COc1cccc(CNC(=O)c2cc3c(s2)-c2ccccc2OC3)c1,inactive: -0.246%
2,COc1ccc(-n2c(=O)c3c4c(sc3n(Cc3ccc(F)cc3)c2=O)CCCC4)c(OC)c1,inactive: -6.08%
3,COc1ccc(NC(=O)c2cc(C3CC3)nc3c2c(C)nn3-c2ccccc2)cc1,inactive: 0.726%
4,Cc1ccc(OCC(=O)Nc2nnc(SCc3cc(=O)c4ccccc4[nH]3)s2)cc1,inactive: 5.03%
5,Cc1cc(N2CCCCC2)nc2ccc(NC(=O)c3cccc(Cl)c3)cc12,inactive: 0.854%
6,CCc1ccc(-n2c(=O)c3cccnc3n2CC(=O)Nc2cc(F)ccc2F)cc1,inactive: 2.72%
7,CCOC(=O)N1CCc2c(sc(NCc3cc(OC)c(OC)cc3OC)c2C(=O)Nc2ccc(OCC)cc2)C1,inactive: -5.06%
8,CCN(CC)C(=O)Cn1cc(SCC(=O)Nc2ccccc2C)c2ccccc21,inactive: -7.9%
9,CCN1CCN(c2ncc3c(n2)CCN(Cc2ccc(OC(C)C)cc2)C3)CC1,inactive: 1.82%
10,CCOC(=O)c1cccc(NC(=O)NCc2ccc3c(c2)CCN3C(=O)c2ccccc2)c1,inactive: -16.9%
11,Cc1cccc(-c2nc(SCCCOc3ccc(Cl)c(C)c3)n3[nH]c(=O)cc3n2)c1,inactive: 8.68%
12,CCOC(=O)c1ccc(-c2ccc(/C=C(\C#N)C(=O)Nc3ccc(OCC)cc3)o2)cc1,inactive: 4.93%
13,COC(=O)c1nnn(-c2cccc(C)c2)c1C(=O)OC,inactive: -7.85%
14,COc1ccc(C2(CNC(=O)C(=O)Nc3ccc(F)cc3)CCCC2)cc1OC,inactive: 0.814%
15,COc1ccc(Cl)cc1-n1nnc(-c2nsc(NC(=O)c3ccccc3Cl)n2)c1C,inactive: 4.61%
16,CCCSc1nc2sc3c(c2c(=O)n1Cc1ccccc1)CC(C)(CC)OC3 (stereo unspecified),inactive: -3.1%
17,Cc1ccc(NC(=O)C2CCC(CNS(=O)(=O)c3csc(C(N)=O)c3)CC2)cc1Cl (stereo unspecified),inactive: -8.05%
18,CCc1ccccc1NC(=O)C(=O)NCC(c1cccnc1)N1CCN(c2ccccc2F)CC1 (stereo unspecified),inactive: 2.09%
19,CCc1nn(Cc2cc(C)ccc2C)c(=O)c2cc3cc(C)ccc3n12,inactive: -3.39%
20,CCOC(=O)c1c(S(=O)(=O)NCC(=O)Nc2cc(C)ccc2C)c(C)n(C)c1C,inactive: -5.12%
21,Cc1ccc(NS(=O)(=O)c2ccc3c(c2)CCCN3C(=O)C2CCC2)c(C)c1,inactive: -14.8%
22,CCc1nn2c(=O)cc(COC(=O)c3ccco3)nc2s1,inactive: -25.3%
23,COc1ccc(N2CCN(C(=O)c3cc4c(s3)-c3ccccc3OC4)CC2)cc1,inactive: -10.7%
24,CCOC(=O)C1CCN(S(=O)(=O)c2csc(C(N)=O)c2)CC1,inactive: -3.82%

row,Compound,"activity change, negative = inhibition"
1,Cc1ccc(-c2cn3c(n2)sc2cc(C(=O)NC(C)C45CC6CC(CC(C6)C4)C5)ccc23)cc1 (stereo unspecified),inactive: 6.41%
2,COc1ccc(N2CC(NC(=O)c3ccc(Br)o3)CC2=O)cc1 (stereo unspecified),inactive: 0.141%
3,Cc1ccccc1C(=O)Nc1nc(-c2nnn(-c3ccc(C(C)C)cc3)c2C)ns1,inactive: -12.3%
4,O=C(Cn1ncc2c([nH]c3ccccc32)c1=O)NCC1CCN(Cc2ccc(F)cc2)CC1,inactive: -0.0966%
5,CCOc1ccccc1CNC(=O)C1CCN(S(=O)(=O)c2ccc3c(ccn3C)c2)CC1,inactive: -10.5%
6,CCOc1ccc(C(=O)NCCS(=O)(=O)N2CCN(c3ccccc3F)CC2)cc1OCC,inactive: -0.0481%
7,Cc1cc(Cl)ccc1NC(=O)CN(c1ccccc1Br)S(C)(=O)=O,inactive: 9.64%
8,COc1ccc(CN2CCN(c3ncnc4sc5c(c34)CC(C)CC5)CC2)cc1F (stereo unspecified),inactive: -1.25%
9,Cc1ccc(C)n1-c1nnc(N2CCCC(C(=O)NCc3cccc(Cl)c3)C2)s1 (stereo unspecified),inactive: -11.8%
10,CC1=C(C(=O)NCc2ccc(Cl)cc2)C2(CCCCC2)OC1=O,inactive: 5.49%
11,CCn1cc(S(=O)(=O)c2cccc(Cl)c2)c(=O)c2cc(F)c(N3CCN(c4ccccc4)CC3)cc21,inactive: 0.789%
12,Cc1nc2ccn(Cc3cccs3)c(=O)c2cc1C(=O)Nc1ccccc1,inactive: -10.2%
13,Cc1ccc(Cl)cc1N1CCN(S(=O)(=O)c2ccc3c(c2)CCCN3C(=O)C2CCC2)CC1,inactive: -4.22%
14,O=C(NCCc1ccccc1)c1cc(Sc2cccc(Cl)c2)nc2ccccc12,inactive: 15.4%
15,COc1ccc(NS(=O)(=O)c2ccc3[nH]c4c(c3c2)CCCC4)cc1Cl,inactive: -0.232%
16,Cc1ccc(CN2C(=O)c3oc4ccc(C)cc4c(=O)c3C2c2ccc(O)cc2)cc1 (stereo unspecified),inactive: 1.36%
17,COc1cc(OC)c(NC(=O)Cn2c(=O)oc3cc(S(=O)(=O)N4CCCC4)ccc32)cc1Cl,inactive: -7.33%
18,CCC(C)NC(=O)c1nn(-c2ccc(C)cc2)c(=O)n(C)c1=O (stereo unspecified),inactive: -4.21%
19,COc1ccc(-c2cc(C(F)(F)F)n3nc(C(=O)Nc4ccccc4SC)cc3n2)cc1OC,inactive: 6.32%
20,Cc1ccc(OCC(=O)N(Cc2ccco2)Cc2ccc(C)o2)cc1,inactive: 4.37%
21,COc1cc2c(=O)n(CCC(=O)NCC3CCCO3)c(=O)n(CC(=O)Nc3ccc(C)c(C)c3)c2cc1OC (stereo unspecified),inactive: -9.19%
22,COc1cccc(CCNC(=O)c2c(O)nc3ccccn3c2=O)c1,inactive: 0.196%
23,CC(C)c1cccc(OCCn2c(-c3ccc(Cl)cc3)nc3ccccc3c2=O)c1,inactive: -5.14%
24,CCOc1ccccc1NC(=O)c1cnn2c(C(F)F)cc(-c3ccccc3)nc12,inactive: -18.3%

row,Compound,"activity change, negative = inhibition"
1,COCCCNC(=O)C1CCN(c2nn3cc(-c4ccc(F)cc4)nc3s2)CC1,inactive: -1.87%
2,Cc1ccccc1C(=O)OCc1cc(=O)n2nc(-c3cccs3)sc2n1,inactive: -5.82%
3,CC1=C(C(=O)Nc2ccccc2)C(c2cccs2)n2nc(SCc3ccccc3F)nc2N1 (stereo unspecified),inactive: -19.5%
4,Cc1ccc(C)c(NC(=O)c2cc(S(=O)(=O)N3CCCCCC3)ccc2F)c1,inactive: 7.38%
5,O=C(CSc1nnc(NC(=O)Nc2ccccc2)s1)Nc1cccc(F)c1,inactive: -0.299%
6,Cn1cc(S(=O)(=O)c2cccc(Cl)c2)c(=O)c2cc(F)c(N3CCN(c4ccccc4)CC3)cc21,inactive: 0.359%
7,Cc1ccc2c(=O)c(C(=O)c3cccc(Cl)c3)cn(CC(=O)Nc3ccc4c(c3)OCCO4)c2n1,inactive: -7.53%
8,COc1ccc(CCCc2nnc(SCC(=O)Nc3ccc(OC)cc3)o2)cc1,inactive: -17.5%
9,O=C(Nc1cc(F)ccc1F)N1CCC(CN2CCCC2)CC1,inactive: 4.16%
10,CN1C(=O)Cc2cc(S(=O)(=O)CCC(=O)Nc3ccc(F)c(Cl)c3)ccc21,inactive: -6.15%
11,CCCc1nn2c(=O)cc(COC(=O)c3ccccc3NC(=O)c3ccc(Cl)cc3)nc2s1,inactive: -1.34%
12,CCc1ccccc1Nc1cc(C(=O)NC(C)c2ccccc2)c2ccccc2n1 (stereo unspecified),inactive: -1.18%
13,Cc1ccc(NC(=O)C(C)Sc2nc(=O)cc(N)n2-c2ccccc2)cc1 (stereo unspecified),inactive: -6.5%
14,CCOC(=O)c1cccc(NC(=O)CCn2nc(C)c(S(=O)(=O)N3CCCCC3)c2C)c1,inactive: 0%
15,CCCC(=O)Nc1ccc(-c2nc3ncccc3o2)cc1C,inactive: -0.146%
16,CCOC(=O)c1ccccc1NC(=O)N1CCC(CN2CCCCC2)CC1,inactive: 0%
17,CCOc1ccc(NC(=O)CN2CCCN(Cc3cc(C)ccc3C)S2(=O)=O)cc1,inactive: -25.6%
18,CCOc1ccc(NC(=O)C2CCN(c3nnc(-n4c(C)ccc4C)s3)CC2)cc1,inactive: -1.4%
19,COCCNC(=O)c1cccc(-n2c(C)nc3cccnc32)c1,inactive: -1.23%
20,Cc1nc(-c2cccnc2)sc1CCNS(=O)(=O)c1ccc(F)cc1,inactive: -14.2%
21,Cc1cc(S(=O)(=O)Nc2ccc(-c3ccc(N4CCCCCC4)nn3)cc2)c(C)cc1Cl,inactive: 0.88%
22,COc1ccc2c(CNCCc3ccco3)c(C(=O)O)n(Cc3ccccc3)c2c1,inactive: -0.033%
23,COc1ccc(-c2cc(C(F)(F)F)nc(SCC(=O)NCCc3ccccc3)n2)cc1OC,inactive: -21.7%
24,CCc1sc(Nc2cccc(C)c2C)nc1-c1cc2cccc(OC)c2oc1=O,inactive: -1.83%

row,Compound,"activity change, negative = inhibition"
1,COc1cc(OC)cc(-n2c(=O)c3sccc3n(Cc3c(C)cc(C)cc3C)c2=O)c1,inactive: -1.33%
2,Cc1cccc(N2CCN(C(=O)CCn3c(=O)c4cccn4c4cccnc43)CC2C)c1 (stereo unspecified),inactive: -11.1%
3,O=C(Nc1cccc(Cl)c1)c1cc2c(=O)[nH]c3ccccc3c2s1,inactive: -8.06%
4,COc1cccc(C(=O)Nc2cccc(-c3cn4c(C)csc4n3)c2)c1OC,inactive: 9.09%
5,Cc1cccc(-c2nc3c4ccccc4nc(N4CCN(c5cc(C)ccc5C)CC4)n3n2)c1,inactive: -0.199%
6,CCOc1ccc(-c2nn(CC(=O)NC3CCCC3)c3c2cnc2ccc(F)cc23)cc1,inactive: -4.29%
7,CCc1ccccc1NC(=O)c1cnc2sc(N3CCCC3)nn2c1=O,inactive: 0.908%
8,O=C(Nc1ccc(-c2cn3cccnc3n2)cc1)c1cc(Br)ccc1Cl,inactive: 0.0194%
9,Cc1nnc(N2CCCC(C(=O)NCCc3ccc(Cl)cc3)C2)c2nn(-c3ccccc3)c(C)c12 (stereo unspecified),inactive: -4.93%
10,COc1cccc(N2CCN(C(=O)Cn3c(-c4cccs4)cc4ccccc43)CC2)c1,inactive: -11.4%
11,CC1=C(C(=O)Nc2ccc(C)cc2C)C(c2cccs2)n2nc(SCc3ccccc3Cl)nc2N1 (stereo unspecified),inactive: -5.82%
12,COc1ccc(CN2C(=O)c3ccccc3C2C(=O)NCCc2ccccc2)c(OC)c1 (stereo unspecified),inactive: -1.59%
13,CC(C)CCNC(=O)CN1N=C(c2ccc(Cl)cc2)CCC1=O,inactive: -16.7%
14,Cc1cn2c(=O)cc(COC(=O)COc3ccccc3C)nc2s1,inactive: -15.8%
15,CCOC(=O)c1c(C)[nH]c(CCC(=O)NCc2ccc(N(C)C)cc2)c1C,inactive: 8.26%
16,O=c1cc(-c2ccccc2)n2c(SCc3ccc(F)cc3)nnc2[nH]1,inactive: -2.36%
17,O=c1oc2ccccc2cc1-c1cn2cc(Cc3ccc(Cl)cc3)sc2n1,inactive: -21%
18,CCN(Cc1ccccc1)C(=O)Cn1c(=O)n(-c2ccc(C)c(C)c2)c(=O)c2c(C)c(C)sc21,inactive: -15.6%
19,COc1ccc(CNc2oc(-c3ccc(COc4ccccc4C)o3)nc2C#N)cc1,inactive: -0.335%
20,O=C(Nc1cccc(C(F)(F)F)c1)c1cc2ccc3cccnc3c2[nH]1,inactive: 3.33%
21,CCn1cc(C(=O)N2CCN(c3ccccc3F)CC2)c(=O)c2cc(S(=O)(=O)N(C)C)ccc21,inactive: -3.45%
22,Cc1ccc(NC(=O)CN2C(=O)CCSc3ccc(S(=O)(=O)N4CCCC4)cc32)cc1C,inactive: 1.77%
23,CC1=C(c2ccc(C)cc2)S(=O)(=O)NC1=NCCCN1CCN(c2ccc(F)cc2)CC1,inactive: -10.4%
24,Cc1ccc(C)c(OC(=O)CSc2nnc(CNC(=O)c3ccccc3)o2)c1,inactive: 0.571%
